Structures are written as SMILES. About 2,200 (0.71%) of roughly 310,000 compounds showed an effect of 50% or more. The effect is printed as a negative number. The list shows a part of the results.

The target in this assay is human ether-à-go-go-related gene (hERG) potassium channel (human, UniProt Q12809). As to the kind of experiment: primary screen, population patch clamp on CHO cells stably expressing hERG.
Chain of human ether-à-go-go-related gene (hERG) potassium channel (Q12809 whole entry, looked up): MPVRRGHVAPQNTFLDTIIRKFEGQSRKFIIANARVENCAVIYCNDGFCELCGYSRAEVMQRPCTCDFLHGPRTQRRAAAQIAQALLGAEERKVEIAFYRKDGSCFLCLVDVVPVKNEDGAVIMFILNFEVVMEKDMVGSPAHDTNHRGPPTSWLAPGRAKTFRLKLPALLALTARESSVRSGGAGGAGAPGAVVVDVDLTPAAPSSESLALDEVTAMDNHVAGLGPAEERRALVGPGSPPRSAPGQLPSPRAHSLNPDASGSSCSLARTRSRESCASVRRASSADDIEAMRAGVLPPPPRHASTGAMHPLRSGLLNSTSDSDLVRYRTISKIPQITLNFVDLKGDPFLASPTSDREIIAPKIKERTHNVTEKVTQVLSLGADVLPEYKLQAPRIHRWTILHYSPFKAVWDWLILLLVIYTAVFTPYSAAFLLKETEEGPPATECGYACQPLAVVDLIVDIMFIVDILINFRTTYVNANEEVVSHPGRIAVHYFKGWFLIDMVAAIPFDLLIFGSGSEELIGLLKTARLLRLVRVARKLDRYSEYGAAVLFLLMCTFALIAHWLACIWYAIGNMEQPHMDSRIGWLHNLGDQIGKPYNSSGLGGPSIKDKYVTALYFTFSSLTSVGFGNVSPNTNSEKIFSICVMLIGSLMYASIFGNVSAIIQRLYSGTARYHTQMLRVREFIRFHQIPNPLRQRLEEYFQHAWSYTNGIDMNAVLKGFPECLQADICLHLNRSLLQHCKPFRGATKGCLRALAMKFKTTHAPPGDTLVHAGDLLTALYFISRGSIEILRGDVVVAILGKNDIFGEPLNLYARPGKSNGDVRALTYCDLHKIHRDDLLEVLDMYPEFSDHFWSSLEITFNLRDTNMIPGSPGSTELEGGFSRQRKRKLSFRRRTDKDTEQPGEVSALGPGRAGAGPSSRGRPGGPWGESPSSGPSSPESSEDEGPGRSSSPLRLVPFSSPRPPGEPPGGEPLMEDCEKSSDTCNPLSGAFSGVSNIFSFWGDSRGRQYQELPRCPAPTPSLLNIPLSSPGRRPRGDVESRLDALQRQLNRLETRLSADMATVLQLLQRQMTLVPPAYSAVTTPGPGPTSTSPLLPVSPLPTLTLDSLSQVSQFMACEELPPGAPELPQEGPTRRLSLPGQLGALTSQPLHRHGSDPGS
On to `O=S(=O)(Nc1nccs1)c1ccc(NCc2cc(Br)cc(Br)c2O)cc1`, for which the “hERG current change (%, negative = inhibition) at 1uM” value is on record as 10.9%.

With `Cc1ccn2cc(C(=O)Nc3nnc(C)s3)nc2c1`, the “hERG current change (%, negative = inhibition) at 1uM” value was found to be 10.5%.

With `CCN(CC(=O)Nc1ccccc1C(F)(F)F)C(=O)CCS(=O)(=O)c1ccc(Cl)cc1`, the “hERG current change (%, negative = inhibition) at 1uM” value is 9.68%.

For `CCN(CC)CCCNC(=S)N1CCN(c2nc(-c3ccc(F)cc3)cs2)CC1`, the “hERG current change (%, negative = inhibition) at 1uM” value came out at 12.7%.

Turning to `CCN(CC(=O)Nc1ccc(NC(C)=O)cc1)C(=O)c1ccc(C(=O)c2ccccc2)cc1`, the “hERG current change (%, negative = inhibition) at 1uM” value was 12.4%.

As to `CC(=O)OCC1OC(OCc2cn(C[C@H]3CC[C@H](Cn4cc(COC5OC(COC(C)=O)C(OC(C)=O)C(OC(C)=O)C5OC(C)=O)nn4)O3)nn2)C(OC(C)=O)C(OC(C)=O)C1OC(C)=O` (some centres unmarked), the “hERG current change (%, negative = inhibition) at 1uM” value was 13.2%.

Consider `Clc1ccc(-n2ncc3c(NCCCn4ccnc4)ncnc32)cc1`, for which the “hERG current change (%, negative = inhibition) at 1uM” value is recorded as -6.58%.

For the molecule `Cc1ccc(SCC(=O)OC(C)C(=O)NC2CCCCC2C)c(C)c1` (centres unmarked), the “hERG current change (%, negative = inhibition) at 1uM” value amounted to 8.58%.

`NCCc1ccccc1`: the “hERG current change (%, negative = inhibition) at 1uM” value was found to be 16.5%.

Take `COc1ccc(C(CNC(=O)c2ccc(C)c(S(=O)(=O)N3CCCCC3)c2)N(C)C)cc1OC` (centres unmarked): the “hERG current change (%, negative = inhibition) at 1uM” value is reported as 7.76%.

Consider `Cc1cc(C)cc(-c2nnc(SCC(=O)N3CCN(C(=O)c4ccco4)CC3)o2)c1`, for which the “hERG current change (%, negative = inhibition) at 1uM” value was found to be 7.61%.

Turning to `Cc1ccc(C(=O)NNC(=O)c2ccc(NS(=O)(=O)c3cccs3)cc2)s1`, the “hERG current change (%, negative = inhibition) at 1uM” value is listed as 19.6%.

On to `Cc1ccc(NC(=O)c2oc3ccc(S(=O)(=O)N4CCC5(CC4)OCCO5)cc3c2C)cc1C`, for which the “hERG current change (%, negative = inhibition) at 1uM” value worked out at 5.25%.

On to `CCc1cccc(NC(=O)CCSCCC(=O)Nc2cccc(CC)c2)c1`, for which the “hERG current change (%, negative = inhibition) at 1uM” value turned out to be 19%.

Regarding `O=C1NC(Cc2ccccc2)c2nc3ccc(Cl)cc3c(=O)n2-c2ccc(Cl)cc21` (centres unmarked), the “hERG current change (%, negative = inhibition) at 1uM” value is 10.4%.

As for `COCn1ccnc1C(O)(c1ccc(OC)cc1)c1ccc(OC)cc1`, the “hERG current change (%, negative = inhibition) at 1uM” value is listed as 9.51%.

As to `Cc1c(C)n(Cc2ccc(F)cc2)c2ccc(C(=O)NCCN3CCOCC3)cc12`, the “hERG current change (%, negative = inhibition) at 1uM” value amounted to 6.56%.

With `CC(C)C(C)NC(=O)COc1ccc(-c2ccccc2)cc1` (centres unmarked), the “hERG current change (%, negative = inhibition) at 1uM” value was 12.9%.

For the molecule `O=C(CSc1nnc(CN2CCCCC2)n1-c1ccccc1)c1ccc2c(c1)OCO2`, the “hERG current change (%, negative = inhibition) at 1uM” value was -8.68%.

As to `Cl.O=C(CN1CCCC1)NCc1ccccc1`, the “hERG current change (%, negative = inhibition) at 1uM” value is 13.4%.

Take `O=S(=O)(NC1CCCCCCC1)c1ccccc1F`: the “hERG current change (%, negative = inhibition) at 1uM” value is 1.98%.

`COc1ccc(NC(=O)Cn2nc([N+](=O)[O-])c(Cl)c2C)cc1OC`: the “hERG current change (%, negative = inhibition) at 1uM” value was 6.63%.

As to `CCOc1ccc(-c2c(C)n([O-])c3c([n+]2=O)CCCCC3)cc1`, the “hERG current change (%, negative = inhibition) at 1uM” value is 6.48%.

For `CCC(C)n1c(SCC(=O)Nc2ccccc2C(F)(F)F)nc2ccsc2c1=O` (centres unmarked), the “hERG current change (%, negative = inhibition) at 1uM” value is on record as -2.54%.

`C=CCN=C1S/C(=C/c2ccc([N+](=O)[O-])cc2)C(=O)N1CC=C`: the “hERG current change (%, negative = inhibition) at 1uM” value is 11.1%.

Take `O=S(=O)(c1cccc(Br)c1)N1CCN(C(=S)NCC2CCCO2)CC1` (centres unmarked): the “hERG current change (%, negative = inhibition) at 1uM” value is listed as 10.3%.

With `O=C(Nc1ccccc1F)c1cc(C(=O)Nc2ccccc2F)cc([N+](=O)[O-])c1`, the “hERG current change (%, negative = inhibition) at 1uM” value is 11.5%.

As to `COc1nc(NCc2ccc(Cl)cc2)nc(OC)n1`, the “hERG current change (%, negative = inhibition) at 1uM” value came out at 13.7%.

For `CCc1cc(-c2n[nH]c(=S)n2CC)cs1`, the “hERG current change (%, negative = inhibition) at 1uM” value is given as 20.6%.

As for `CCc1c(C)sc(NC(=O)c2ccco2)c1C(=O)N1CCOCC1`, the “hERG current change (%, negative = inhibition) at 1uM” value stood at 12.7%.

`CCN(c1ccccc1C(=O)O)S(=O)(=O)c1ccc2[nH]c(=O)[nH]c2c1`: the “hERG current change (%, negative = inhibition) at 1uM” value came to 12.7%.

In the case of `Cc1csc(NC(=O)c2ccc(Cl)nc2)n1`, the “hERG current change (%, negative = inhibition) at 1uM” value is 7.59%.

In the case of `CCc1nnc(NC(=O)CSc2nnnn2-c2cccc(C(=O)OC)c2)s1`, the “hERG current change (%, negative = inhibition) at 1uM” value amounted to 7.81%.

For the molecule `C=CCNC(=O)c1ccccc1NC(=O)c1ccc(Cl)c(S(=O)(=O)Nc2cccc(C)c2C)c1`, the “hERG current change (%, negative = inhibition) at 1uM” value was -0.793%.

Consider `CCc1ccccc1NC(=O)c1cc(S(=O)(=O)N2CCc3ccccc32)cn1C`, for which the “hERG current change (%, negative = inhibition) at 1uM” value worked out at 5.92%.

For the molecule `CCCC(NC(=O)CCc1c(C)c2cc3c4c(oc3c(C)c2oc1=O)CCCC4)C(=O)O` (centres unmarked), the “hERG current change (%, negative = inhibition) at 1uM” value came out at 9.46%.

Turning to `CC(=O)c1ccc(-c2ccc([C@H]3[C@@H]4C=CCC[C@@]4(C)C(=O)N3Cc3ccccc3)c(F)c2)cc1`, the “hERG current change (%, negative = inhibition) at 1uM” value is 9.07%.

As for `CC1(C)CC(c2nc(-c3ccc([N+](=O)[O-])cc3)cs2)CCO1` (centres unmarked), the “hERG current change (%, negative = inhibition) at 1uM” value is 9.08%.

For the molecule `CNC(=O)c1c(NC(=O)c2ccc(S(=O)(=O)N3CCCCC3)cc2)sc2c1CCN(C(C)C)C2`, the “hERG current change (%, negative = inhibition) at 1uM” value was 4.61%.

`COc1cc(OC)cc(C(=O)OCc2ccc([N+](=O)[O-])cc2)c1`: the “hERG current change (%, negative = inhibition) at 1uM” value was 9.12%.

For the molecule `C=CCOc1ccc(C=Nc2ccc(OC)cc2)c(O)c1`, the “hERG current change (%, negative = inhibition) at 1uM” value is recorded as 18.3%.

In the case of `CCCS(=O)(=O)c1c(S(=O)(=O)CCC)c2c(N)cccn2c1C(=O)OC`, the “hERG current change (%, negative = inhibition) at 1uM” value is 3.94%.

Turning to `COc1ccc(N2C(=O)CC(N3CCC(n4c(=O)[nH]c5ccccc54)CC3)C2=O)cc1` (centres unmarked), the “hERG current change (%, negative = inhibition) at 1uM” value is listed as -14.8%.

In the case of `CN1CCN(C(=O)c2cnn(-c3ccccc3)c2NC(=O)c2cccs2)CC1`, the “hERG current change (%, negative = inhibition) at 1uM” value is -24.1%.
